Assay results taken from the supplement of paper PMC8728848.
The list shows a part of the results.

Experiments:
Assay in all cases: glycan array binding signal (z-score within array); higher = stronger binding
Details in all cases: glycan notation: IUPAC condensed, linker removed
[1] = target: Gal(a1-3)Gal(b1-4)GlcNAc(b1-2)Man
In short: (§1)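 The Consortium for Functional Glycomics database supplied 3228 glycan arrays, of which those lacking an available protein sequence were dropped. The binding signal, a within-array Z-score, was averaged across arrays of the same protein sequence and across linkers. Negative scores can be read as non-binding.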

[2] = target: Gal(a1-3)Gal(b1-4)GlcNAc(b1-2)Man(a1-3)[Gal(a1-3)Gal(b1-4)GlcNAc(b1-2)Man(a1-6)]Man(b1-4)GlcNAc(b1-4)GlcNAc
In short: as §1

[3] = target: Gal(a1-3)Gal(b1-4)GlcNAc(b1-3)GalNAc
In short: as §1

[4] = target: Gal(a1-3)Gal(b1-4)GlcNAc(b1-6)GalNAc
In short: as §1

[5] = target: Gal(a1-3)Gal(b1-4)[Fuc(a1-3)]GlcNAc
In short: as §1

[6] = target: Gal(a1-3)Gal(b1-4)[Fuc(a1-3)]GlcNAc(b1-2)Man(a1-3)[Gal(a1-3)Gal(b1-4)[Fuc(a1-3)]GlcNAc(b1-2)Man(a1-6)]Man(b1-4)GlcNAc(b1-4)GlcNAc
In short: as §1

[7] = target: Gal(a1-3)GalNAc
In short: as §1

[8] = target: Gal(a1-3)[Gal(a1-4)]Gal(b1-4)GlcNAc
In short: as §1

[9] = target: Gal(a1-4)Gal(b1-3)GlcNAc(b1-2)Man(a1-3)[Gal(a1-4)Gal(b1-3)GlcNAc(b1-2)Man(a1-6)]Man(b1-4)GlcNAc(b1-4)GlcNAc
In short: as §1

[10] = target: Gal(a1-4)Gal(b1-4)Glc
In short: as §1

[11] = target: Gal(a1-4)Gal(b1-4)GlcNAc
In short: as §1

[12] = target: Gal(a1-4)Gal(b1-4)GlcNAc(b1-2)Man(a1-3)[Gal(a1-4)Gal(b1-4)GlcNAc(b1-2)Man(a1-6)]Man(b1-4)GlcNAc(b1-4)GlcNAc
In short: as §1

[13] = target: Gal(a1-4)Gal(b1-4)GlcNAc(b1-3)Gal(b1-4)Glc
In short: as §1

[14] = target: Gal(a1-4)GlcNAc
In short: as §1

[15] = target: Gal(a1-6)Glc
In short: as §1

[16] = target: Gal(b1-2)Gal
In short: as §1

[17] = target: Gal(b1-3)Gal
In short: as §1

[18] = target: Gal(b1-3)Gal(b1-4)GlcNAc
In short: as §1

[19] = target: Gal(b1-3)GalNAc
In short: as §1

[20] = target: Gal(b1-3)GalNAc(a1-3)[Fuc(a1-2)]Gal(b1-4)Glc
In short: as §1

[21] = target: Gal(b1-3)GalNAc(a1-3)[Fuc(a1-2)]Gal(b1-4)GlcNAc
In short: as §1

[22] = target: Gal(b1-3)GalNAc(b1-3)Gal
In short: as §1

[23] = target: Gal(b1-3)GalNAc(b1-3)Gal(a1-4)Gal(b1-4)Glc
In short: as §1

[24] = target: Gal(b1-3)GalNAc(b1-4)Gal(b1-4)Glc
In short: as §1

[25] = target: Gal(b1-3)GalNAc(b1-4)[Neu5Ac(a2-3)]Gal(b1-4)Glc
In short: as §1

[26] = target: Gal(b1-3)GlcNAc
In short: as §1

[27] = target: Gal(b1-3)GlcNAc(a1-3)Gal(b1-4)GlcNAc
In short: as §1

[28] = target: Gal(b1-3)GlcNAc(a1-6)Gal(b1-4)GlcNAc
In short: as §1

[29] = target: Gal(b1-3)GlcNAc(b1-2)Man
In short: as §1

[30] = target: Gal(b1-3)GlcNAc(b1-2)Man(a1-3)[Gal(b1-3)GlcNAc(b1-2)Man(a1-6)]Man(b1-4)GlcNAc(b1-4)GlcNAc
In short: as §1

[31] = target: Gal(b1-3)GlcNAc(b1-2)Man(a1-3)[Gal(b1-3)GlcNAc(b1-2)Man(a1-6)]Man(b1-4)GlcNAc(b1-4)[Fuc(a1-6)]GlcNAc
In short: as §1

[32] = target: Gal(b1-3)GlcNAc(b1-2)Man(a1-3)[GlcNAc(b1-4)][Gal(b1-3)GlcNAc(b1-2)Man(a1-6)]Man(b1-4)GlcNAc(b1-4)GlcNAc
In short: as §1

[33] = target: Gal(b1-3)GlcNAc(b1-2)[Gal(b1-3)GlcNAc(b1-6)]Man(a1-6)[Gal(b1-3)GlcNAc(b1-2)Man(a1-3)]Man(b1-4)GlcNAc(b1-4)GlcNAc
In short: as §1

[34] = target: Gal(b1-3)GlcNAc(b1-3)Gal(b1-3)GlcNAc
In short: as §1

[35] = target: Gal(b1-3)GlcNAc(b1-3)Gal(b1-4)Glc
In short: as §1

[36] = target: Gal(b1-3)GlcNAc(b1-3)Gal(b1-4)GlcNAc
In short: as §1

[37] = target: Gal(b1-3)GlcNAc(b1-3)Gal(b1-4)GlcNAc(b1-2)Man(a1-3)[Gal(b1-3)GlcNAc(b1-3)Gal(b1-4)GlcNAc(b1-2)Man(a1-6)]Man(b1-4)GlcNAc(b1-4)GlcNAc
In short: as §1

[38] = target: Gal(b1-3)GlcNAc(b1-3)Gal(b1-4)GlcNAc(b1-2)[Gal(b1-3)GlcNAc(b1-3)Gal(b1-4)GlcNAc(b1-6)]Man(a1-6)[Gal(b1-3)GlcNAc(b1-3)Gal(b1-4)GlcNAc(b1-2)Man(a1-3)]Man(b1-4)GlcNAc(b1-4)[Fuc(a1-6)]GlcNAc
In short: as §1

[39] = target: Gal(b1-3)GlcNAc(b1-3)Gal(b1-4)GlcNAc(b1-3)Gal(b1-4)GlcNAc(b1-2)[Gal(b1-3)GlcNAc(b1-3)Gal(b1-4)GlcNAc(b1-3)Gal(b1-4)GlcNAc(b1-6)]Man(a1-6)[Gal(b1-3)GlcNAc(b1-3)Gal(b1-4)GlcNAc(b1-3)Gal(b1-4)GlcNAc(b1-2)Man(a1-3)]Man(b1-4)GlcNAc(b1-4)[Fuc(a1-6)]GlcNAc
In short: as §1

[40] = target: Gal(b1-3)GlcNAc(b1-3)Gal(b1-4)GlcNAc(b1-6)[Gal(b1-3)GlcNAc(b1-3)]Gal(b1-4)Glc
In short: as §1

[41] = target: Gal(b1-3)GlcNAc(b1-3)Gal(b1-4)[Fuc(a1-3)]GlcNAc
In short: as §1

[42] = target: Gal(b1-3)GlcNAc(b1-3)Gal(b1-4)[Fuc(a1-3)]GlcNAc(b1-6)[Gal(b1-3)GlcNAc(b1-3)]Gal(b1-4)Glc
In short: as §1

[43] = target: Gal(b1-3)GlcNAc(b1-3)GalNAc
In short: as §1

[44] = target: Gal(b1-3)GlcNAc(b1-6)Gal(b1-4)GlcNAc
In short: as §1

[45] = target: Gal(b1-3)GlcNAc(b1-6)GalNAc
In short: as §1

B1: LecB PA7 (Pseudomonas aeruginosa) (protein)
chain: MATQGVFTLPANTRFGVTAFANSSATQTVKVLVNNETAATFTGQSTNNAVIGSQVLNSGGGGKVQIQVSVNGRSSDLVSAQVILANELNVALVGSEDSTDNDYNDAVVVINWPLG
How did the “glycan array binding signal (z-score)” value [1] turn out when B1 was run?
Its value is -0.502.

What about the “glycan array binding signal (z-score)” value [2] of the same binder?
Its value is -0.479.

What about the “glycan array binding signal (z-score)” value [3] of the same binder?
The value was -0.511.

And the “glycan array binding signal (z-score)” value [4]?
Its value is -0.446.

What about the “glycan array binding signal (z-score)” value [5] of the same binder?
Its value is 0.615.

And the “glycan array binding signal (z-score)” value [6]?
The value was 0.901.

And the “glycan array binding signal (z-score)” value [7]?
The value was -0.505.

What about the “glycan array binding signal (z-score)” value [8] of the same binder?
Its value is -0.506.

What about the “glycan array binding signal (z-score)” value [9] of the same binder?
Its value is -0.121.

What about the “glycan array binding signal (z-score)” value [10] of the same binder?
The value was -0.484.

What about the “glycan array binding signal (z-score)” value [11] of the same binder?
The value was -0.458.

And the “glycan array binding signal (z-score)” value [12]?
Its value is -0.486.

What about the “glycan array binding signal (z-score)” value [13] of the same binder?
Its value is -0.486.

And the “glycan array binding signal (z-score)” value [14]?
Its value is -0.513.

What about the “glycan array binding signal (z-score)” value [15] of the same binder?
Its value is -0.479.

And the “glycan array binding signal (z-score)” value [16]?
Its value is -0.49.

And the “glycan array binding signal (z-score)” value [17]?
The value was -0.49.

And the “glycan array binding signal (z-score)” value [18]?
The value was -0.498.

And the “glycan array binding signal (z-score)” value [19]?
The value was -0.403.

And the “glycan array binding signal (z-score)” value [20]?
Its value is -0.487.

And the “glycan array binding signal (z-score)” value [21]?
Its value is -0.46.

And the “glycan array binding signal (z-score)” value [22]?
Its value is -0.514.

What about the “glycan array binding signal (z-score)” value [23] of the same binder?
The value was -0.485.

What about the “glycan array binding signal (z-score)” value [24] of the same binder?
The value was -0.506.

And the “glycan array binding signal (z-score)” value [25]?
Its value is -0.426.

What about the “glycan array binding signal (z-score)” value [26] of the same binder?
Its value is -0.504.

What about the “glycan array binding signal (z-score)” value [27] of the same binder?
The value was -0.51.

What about the “glycan array binding signal (z-score)” value [28] of the same binder?
Its value is -0.512.

What about the “glycan array binding signal (z-score)” value [29] of the same binder?
Its value is -0.465.

And the “glycan array binding signal (z-score)” value [30]?
The value was 0.018.

And the “glycan array binding signal (z-score)” value [31]?
Its value is 0.034.

What about the “glycan array binding signal (z-score)” value [32] of the same binder?
Its value is -0.075.

What about the “glycan array binding signal (z-score)” value [33] of the same binder?
The value was -0.209.

And the “glycan array binding signal (z-score)” value [34]?
The value was -0.499.

And the “glycan array binding signal (z-score)” value [35]?
Its value is -0.365.

What about the “glycan array binding signal (z-score)” value [36] of the same binder?
Its value is -0.498.

And the “glycan array binding signal (z-score)” value [37]?
Its value is -0.35.

What about the “glycan array binding signal (z-score)” value [38] of the same binder?
Its value is 0.391.

And the “glycan array binding signal (z-score)” value [39]?
Its value is 0.705.

And the “glycan array binding signal (z-score)” value [40]?
The value was -0.472.

And the “glycan array binding signal (z-score)” value [41]?
The value was 1.8.

What about the “glycan array binding signal (z-score)” value [42] of the same binder?
The value was -0.017.

What about the “glycan array binding signal (z-score)” value [43] of the same binder?
Its value is -0.499.

What about the “glycan array binding signal (z-score)” value [44] of the same binder?
Its value is -0.507.

And the “glycan array binding signal (z-score)” value [45]?
Its value is -0.504.
